Screen size: about 55,000 compounds; about 530 (0.96%) were called active. This list was built around the results that the source calls inconclusive (neither active nor inactive); the mix of calls is not that of the screen. Calls follow the shape of the dose curve; as a rule, active = well fitted cell-killing curve with a large enough effect; inconclusive = small, poorly fitted or top-dose-only effect; inactive = no such curve, though single readings can be large or run the other way. A potency beside an inconclusive call is a rough fit, not a confirmed value.
Experiment: qHTS Screen for Compounds that Selectively Target Cancer Cells with p53 Mutations: Cytotoxicity of p53 Null Cells at the Nonpermissive Temperature; also: nearly all actives have a fitted effect of over 50% in size
Conditions: H1299 p53-null (neo) cells, 39C, ATPlite viability, 24 h; series mostly up to 46.1 µM
Method in brief: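 Luminescent ATP signal reported cell survival after H1299 lines (neo, p53 null; or p53 A138V) received up to 46 uM compound and 24 hr incubation at 39C.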
Potency is read from the fitted curve at half-maximal effect; tags tell the direction and shape of the fitted curve.

| SMILES | Potency |
| --- | --- |
| CCCN1CCN(CC2=C(C(=O)OCC)C(c3ccc(Cl)cc3)NC(=O)N2)CC1 (stereo not drawn) | inconclusive: 5.01 µM [cytotoxic, full curve, poor fit] |
| CC1CCN(c2ncnc3ccccc23)CC1 | inactive |
| CC(C)(C)c1ccc(CN2C3=NCCCN3c3ccccc32)cc1 | inconclusive: 17.8 µM [cytotoxic, partial curve] |
| Cc1nn(CCCC(=O)NCc2ccccc2)c(=O)c2c1sc1ccccc12 | inconclusive: 14.1 µM [cytotoxic, single point] |
| COc1cc(NC(=O)C2=C(C)Nc3nnnn3C2c2ccc(SC)cc2)c(OC)cc1Cl (stereo not drawn) | inconclusive: 31.6 µM [cytotoxic, single point] |
| CC1=C(C(N)=O)C(c2cccc(C)c2)n2nc(-c3ccc(Cl)cc3)nc2N1 (stereo not drawn) | inconclusive: 14.1 µM [cytotoxic, single point] |
| O=C(NCCCN1CCN(c2ccc(F)cc2)CC1)c1cc2c(s1)-c1ccccc1OC2 | inconclusive: 31.6 µM [cytotoxic, single point] |
| Cc1ccc(Nc2c(-c3ccc(N(C)C)cc3)nc3ccccn23)cc1 | inconclusive: 3.16 µM [cytotoxic, single point] |
| COc1ccc(C(=O)c2cn(Cc3ccccc3F)c3ccc(F)cc3c2=O)cc1 | inactive |
| Cc1ccc(-c2nnc(Nc3ccc(Cl)cc3)c3ccccc23)cc1S(=O)(=O)NCC1CCCO1 (stereo not drawn) | inconclusive: 7.94 µM [cytotoxic, partial curve] |
| O=C(NCCCN1CCN(c2ccccc2)CC1)c1cc2c(s1)-c1ccccc1OC2 | inconclusive: 20 µM [cytotoxic, single point] |
| COc1ccccc1N1CCN(C(=O)CSc2nc(-c3ccc(C(C)C)cc3)no2)CC1 | inconclusive: 10 µM [cytotoxic, single point] |
| Cc1cccc(NC(=O)c2c(Br)sc3c2CCCC3)c1 | inactive |
| COc1ccc(NC(=O)CCCS(=O)(=O)c2nc(-c3ccc(OC)c(OC)c3)cc(C(F)(F)F)n2)cc1OC | inconclusive: 15.8 µM [cytotoxic, single point] |
| CN(C)c1ccc(CNc2nc(-c3ccco3)nn2C(=O)c2cccc([N+](=O)[O-])c2)cc1 | inconclusive: 0.0501 µM [cytotoxic, full curve] |
| Cc1cccc(C(CC(=O)NCC2(c3ccccc3)CCCC2)c2ccccc2)c1O (stereo not drawn) | inconclusive: 22.4 µM [cytotoxic, single point] |
| Cc1cccc(Cn2c(C)c(C)c3cc(C(=O)NCc4ccc(C)o4)ccc32)c1 | inactive |
| Cc1ccc2nc(/C(C#N)=C/c3ccc(-c4cccc(Cl)c4)o3)[nH]c2c1 | inconclusive: 20 µM [cytotoxic, single point] |

— PubChem BioAssay AID904 (National Center for Advancing Translational Sciences (NCATS), 2007)
